Data: a collection of fitness landscapes (doi:10.1126/science.1257360)
Some of the results follow.

B1: PhoQ; a variant is named by its letters at X, in order, P23837 (parent)
chain: MKKLLRLFFPLSLRVRFLLATAAVVLVLSLAYGMVALIGYSVSFDKTTFRLLRGESNLFYTLAKWENNKLHVELPENIDKQSPTMTLIYDENGQLLWAQRDVPWLMKMIQPDWLKSNGFHEIEADVNDTSLLLSGDHSIQQQLQEVREDDDDAEMTHSVAVNVYPATSRMPKLTIVVVDTIPVELKSSYMVWSWFIYVLSANLLLVIPLLWVAAWWSLRPIEALAKEVRELEEHNRELLNPATTRELTSLVRNLNRLLKSERERYDKYRTTLTDLTHSLKTPLXXLQXXLRSLRSEKMSVSDAEPVMLEQISRISQQIGYYLHRASMRGGTLLSRELHPVAPLLDNLTSALNKVYQRKGVNISLDISPEISFVGEQNDFVEVMGNVLDNACKYCLEFVEISARQTDEHLYIVVEDDGPGIPLSKREVIFDRGQRVDTLRPGQGVGLAVAREITEQYEGKIVAGESMLGGARMEVIFGRQHSAPKDE

Variants of: B1
Test: enrichment ratio after two sorts for PhoP signalling (ratio (wild type AVST 3.29)); higher = more functional
Conditions: with PhoP (E. coli)

Row | Variant | enrichment ratio
1 | MYSM | ≤ 0.25
2 | KQMT | ≤ 0.25
3 | VQCD | ≤ 0.25
4 | PRIS | ≤ 0.25
5 | EVQW | ≤ 0.25
6 | YRTM | ≤ 0.25
7 | ARHY | ≤ 0.25
8 | GCHP | ≤ 0.25
9 | HESK | ≤ 0.25
10 | HEKT | ≤ 0.25
11 | QMSP | ≤ 0.25
12 | MRFI | 0.326
13 | RHML | ≤ 0.25
14 | RHFQ | ≤ 0.25
15 | INPI | ≤ 0.25
16 | SLTV | 10.4
17 | RPVG | ≤ 0.25
18 | GHRS | ≤ 0.25
19 | TYWE | ≤ 0.25
20 | PMNH | ≤ 0.25
21 | APYV | ≤ 0.25
22 | QQPW | ≤ 0.25
23 | DQNV | ≤ 0.25
24 | VKWY | ≤ 0.25
25 | FSQY | ≤ 0.25

Row | Variant | enrichment ratio
26 | MKSV | ≤ 0.25
27 | INSP | ≤ 0.25
28 | AWKS | ≤ 0.25
29 | WNKG | ≤ 0.25
30 | PVFR | ≤ 0.25
31 | VRLN | ≤ 0.25
32 | FEKA | ≤ 0.25
33 | ELWF | ≤ 0.25
34 | IIMA | ≤ 0.25
35 | LREM | ≤ 0.25
36 | YECW | 0.272
37 | FMQW | ≤ 0.25
38 | SFTN | ≤ 0.25
39 | YTVG | ≤ 0.25
40 | QLFV | ≤ 0.25
41 | WEHP | ≤ 0.25
42 | ETSC | ≤ 0.25
43 | SNCG | 13.5
44 | MWSC | ≤ 0.25
45 | LPEV | ≤ 0.25
46 | LAEP | ≤ 0.25
47 | SEQE | ≤ 0.25
48 | TLKG | ≤ 0.25
49 | HTER | ≤ 0.25
50 | RIWC | ≤ 0.25

Row | Variant | enrichment ratio
51 | VMWV | ≤ 0.25
52 | RWSA | ≤ 0.25
53 | GKCS | 0.777
54 | LCAG | ≤ 0.25
55 | WHIA | ≤ 0.25
56 | IAVY | ≤ 0.25
57 | WLWM | ≤ 0.25
58 | IPFM | ≤ 0.25
59 | GFTY | ≤ 0.25
60 | MPMS | ≤ 0.25
61 | FDTA | ≤ 0.25
62 | ITFD | ≤ 0.25
63 | TTTI | 22.1
64 | PPPP | ≤ 0.25
65 | GYIK | ≤ 0.25
66 | APNR | ≤ 0.25
67 | DEMM | ≤ 0.25
68 | MEWI | 24
69 | GDRW | ≤ 0.25
70 | GCYP | ≤ 0.25
71 | WQFY | ≤ 0.25
72 | SFGA | ≤ 0.25
73 | ITLQ | 5.07
74 | TWSV | ≤ 0.25
75 | FAFP | ≤ 0.25

Row | Variant | enrichment ratio
76 | APDF | ≤ 0.25
77 | MHHK | ≤ 0.25
78 | HLDI | ≤ 0.25
79 | DAAT | ≤ 0.25
80 | IMTG | ≤ 0.25
81 | FVGI | ≤ 0.25
82 | MEAR | ≤ 0.25
83 | ATSG | 5.01
84 | CIQV | ≤ 0.25
85 | NEWS | ≤ 0.25
86 | YYKQ | ≤ 0.25
87 | GCNS | ≤ 0.25
88 | TCAF | 8.3
89 | YPGQ | ≤ 0.25
90 | HNGD | ≤ 0.25
91 | YKHS | ≤ 0.25
92 | GHIP | ≤ 0.25
93 | GITC | 8.58
94 | WICY | ≤ 0.25
95 | LGNQ | ≤ 0.25
96 | ICCV | ≤ 0.25
97 | TMRG | ≤ 0.25
98 | INDA | ≤ 0.25
99 | YGRR | ≤ 0.25
100 | KIKM | ≤ 0.25

Row | Variant | enrichment ratio
101 | EPYV | ≤ 0.25
102 | MTND | ≤ 0.25
103 | LTCK | ≤ 0.25
104 | HQWC | ≤ 0.25
105 | DDWK | ≤ 0.25
106 | VEKA | ≤ 0.25
107 | PLPM | 0.586
108 | KMCP | ≤ 0.25
109 | AWPT | ≤ 0.25
110 | WRID | ≤ 0.25
111 | QAFM | 2.31
112 | IIVC | ≤ 0.25
113 | GLIQ | ≤ 0.25
114 | GDWV | ≤ 0.25
115 | KTPH | ≤ 0.25
116 | SGLL | 19.8
117 | SGNH | ≤ 0.25
118 | GYQD | ≤ 0.25
119 | KICK | ≤ 0.25
120 | NVFI | ≤ 0.25
121 | HYYD | ≤ 0.25
122 | RFTC | ≤ 0.25
123 | TEHK | ≤ 0.25
124 | WRSW | ≤ 0.25
125 | MTSW | ≤ 0.25

Row | Variant | enrichment ratio
126 | NYDP | ≤ 0.25
127 | STQK | ≤ 0.25
128 | AEPK | ≤ 0.25
129 | GGAV | 23.8
130 | LWWN | ≤ 0.25
131 | TVRH | ≤ 0.25
132 | LCKN | ≤ 0.25
133 | LSKL | ≤ 0.25
134 | WRMY | ≤ 0.25
135 | SQEQ | ≤ 0.25
136 | NQYT | ≤ 0.25
137 | DVNY | ≤ 0.25
138 | SARA | ≤ 0.25
139 | DRCL | ≤ 0.25
140 | KAKM | ≤ 0.25
141 | EYRL | ≤ 0.25
142 | PPAM | ≤ 0.25
143 | NNME | ≤ 0.25
144 | TIYN | 2.88
145 | VWKY | ≤ 0.25
146 | SVLF | 0.424
147 | MQNA | ≤ 0.25
148 | YDKH | ≤ 0.25
149 | TYGW | ≤ 0.25
150 | HIQW | ≤ 0.25

Row | Variant | enrichment ratio
151 | DNGI | ≤ 0.25
152 | RWFY | ≤ 0.25
153 | KLFK | ≤ 0.25
154 | QRNQ | ≤ 0.25
155 | MSPC | ≤ 0.25
156 | LASH | ≤ 0.25
157 | FSYA | ≤ 0.25
158 | IWTV | ≤ 0.25
159 | TGCW | 3.49
160 | MCES | ≤ 0.25
161 | YMNA | ≤ 0.25
162 | KHWF | ≤ 0.25
163 | LLCN | ≤ 0.25
164 | RDQN | ≤ 0.25
165 | WEWS | ≤ 0.25
166 | GAAG | ≤ 0.25
167 | QFWW | ≤ 0.25
168 | CMAH | 7.79
169 | FEQM | ≤ 0.25
170 | NCFY | ≤ 0.25
171 | VNLQ | 0.791
172 | NTDV | ≤ 0.25
173 | QRLF | ≤ 0.25
174 | RNDA | ≤ 0.25
175 | DSLN | ≤ 0.25

Row | Variant | enrichment ratio
176 | LKFV | ≤ 0.25
177 | LRMQ | ≤ 0.25
178 | DERM | ≤ 0.25
179 | HLGI | ≤ 0.25
180 | WKLF | ≤ 0.25
181 | DPFI | ≤ 0.25
182 | YMTL | ≤ 0.25
183 | IIMG | ≤ 0.25
184 | SATT | 2.73
185 | KSVE | ≤ 0.25
186 | ANKY | ≤ 0.25
187 | GTLF | 11.4
188 | MTDN | ≤ 0.25
189 | DARI | ≤ 0.25
190 | FAIH | ≤ 0.25
191 | KGIF | ≤ 0.25
192 | YHRR | ≤ 0.25
193 | QDYS | ≤ 0.25
194 | YPKL | ≤ 0.25
195 | EPRF | ≤ 0.25
